# Source: PubChem BioAssay (Tox21)
# Several values for one entry are separate records, joined by “and”; a condition that tells them apart may be missing. Equal values may be shown once. Inconclusive means that the source gave no clear call. Such entries were picked first, then a sample of the others. A potency beside an inconclusive call is a rough fit, not a confirmed value. Activity calls are given as the source filed them. Unless noted, calls follow the shape of the full dose curve.
# Tested on: not listed separately
# Assay: qHTS assay to identify small molecule antagonists of the sonic hedgehog signaling (Shh) pathway (AID 1259369); also: nearly all actives have a fitted effect of over 45% in size
# Conditions: NIH/3T3 Gli1-Luc reporter, Shh antagonist, luminescence 24 h; series mostly up to 92.4 µM
# Summary of the method: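 NIH/3T3-derived 3T3Gli1-Luc cells with stably integrated Gli1-Luc reporter were preincubated 4hr at 37 C, then given compounds in DMSO plus Shh conditioned medium and incubated 24hr. Firefly luciferase luminescence read after 30min reagent at room temperature.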
# Potency is read from the fitted curve at half-maximal effect; tags tell the direction and shape of the fitted curve or compound fluorescence and quenching.
row,Structure (SMILES),Potency
1,CC1=C2[C@@H]([C@H](C)CC[C@H]2/C=C(\C)C(=O)O)[C@H](O)C1,"inconclusive: 76.2 µM [inhibitor, single point]"
2,CCCCCCCCCCCSCC(=O)O,"inconclusive: 13.7 µM [inhibitor, partial curve]"
3,C[CH2][Ge]([Cl])([CH2]C)[CH2]C,"inconclusive: 0.252 µM [inhibitor, single point]"
4,COc1ccc(O)cc1,"inconclusive: 20.9 µM [inhibitor, full curve] and inconclusive: 33.5 µM [inhibitor, single point]"
5,CCN(C(=O)c1cc(C)cc(OC[C@H](C)Nc2ccncc2)c1)C(C)C,"inconclusive: 7.61 µM [inhibitor, full curve]"

# Molecular target: Estrogen receptor beta (Homo sapiens) (UniProt Q92731)
# Sequence of UniProt Q92731 (Q92731 whole entry, looked up): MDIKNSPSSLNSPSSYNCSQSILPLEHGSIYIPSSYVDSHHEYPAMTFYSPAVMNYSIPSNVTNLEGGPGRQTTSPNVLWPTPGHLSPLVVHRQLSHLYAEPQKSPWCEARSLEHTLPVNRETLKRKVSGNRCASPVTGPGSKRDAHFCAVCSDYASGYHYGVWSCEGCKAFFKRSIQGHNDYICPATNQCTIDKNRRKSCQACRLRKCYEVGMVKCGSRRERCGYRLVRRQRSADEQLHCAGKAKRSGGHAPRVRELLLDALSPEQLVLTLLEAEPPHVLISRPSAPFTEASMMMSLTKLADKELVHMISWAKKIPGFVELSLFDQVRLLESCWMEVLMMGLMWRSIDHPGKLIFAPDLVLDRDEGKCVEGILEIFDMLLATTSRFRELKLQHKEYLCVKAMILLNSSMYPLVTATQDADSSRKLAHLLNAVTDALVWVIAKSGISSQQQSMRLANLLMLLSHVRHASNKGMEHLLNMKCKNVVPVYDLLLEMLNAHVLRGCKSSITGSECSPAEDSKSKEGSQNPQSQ
# Assay: qHTS assay to identify small molecule agonists of the estrogen receptor beta (ER-beta) signaling pathway (AID 1259377; active = well fitted activation curve with a large enough effect in the signal ratio in the repeat runs, not every such curve was filed as active; inconclusive = weak or mixed curves, or effect the other way; the % refers to the signal ratio; as to activation: % is scaled to controls: 0 for no effect and ±100 for the full control effect)
# Conditions: ER-beta-UAS-bla HEK293T, beta-lactamase FRET ratio, 16 h; activation: at 92.4 µM (top of the series) unless noted
# Summary of the method: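 ER-beta-UAS-bla HEK293T cells in medium with 2% charcoal-stripped FBS were exposed to compounds for 16 h at 37C. Beta-lactamase reporter activity was read as fluorescence after 2 h with LiveBLAzer B/G FRET substrate at room temperature.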
Structure (SMILES),Potency,activation
OCCN(CCO)CCN(CCO)CCO,inactive,
CCCCCCCCCCCCCCC(=O)O,,inconclusive: 10.9%
C=CCCCCCCCCCC,,inconclusive: 9.48%
CCCCCC[C@@H](O)C/C=C\CCCCCCCC(=O)O,inactive,
COc1ccc(C)cc1[N+](=O)[O-],inactive,
CC(CO)c1ccccc1 (stereo not given),,inconclusive: 14.9%
Cc1cccc(C)c1NC(=O)c1ccc(N)cc1,inactive,
Nc1ccncc1N,inactive,
CCOC(=O)CCC(=O)OCC,inactive,
O=C(O)c1ccc(OCCCOc2ccc(C(=O)O)cc2)cc1,,inconclusive: 10.8% [at 42.5 µM]
NCCCNCCSP(=O)(O)O,,inactive: -1.24% [at 8.39 µM]
O=S(=O)(O)CCS,,inconclusive: 6% [at 42.5 µM]
CN(C)[C@@H]1C(=O)C(C(N)=O)=C(O)[C@@]2(O)C(=O)C3=C(O)c4c(O)cccc4C[C@H]3C[C@@H]12,inconclusive: 33.5 µM,
COc1cc(C(=O)N2CCOCC2)cc(OC)c1OC,"inconclusive: 16.8 µM [activator, partial curve, poor fit]",
Cc1ccc([N+](=O)[O-])cc1S(=O)(=O)O,inactive,
Clc1ccc(Cl)c(Cl)c1Cl,,inconclusive: 9.48%
OCc1ccccc1O,"inconclusive: 10.6 µM [fluorescent, partial curve]",
C=CCOCC(CO)(COCC=C)COCC=C,inactive,
CC1=C2[C@@H]([C@H](C)CC[C@H]2/C=C(\C)C(=O)O)[C@H](O)C1,inactive,
CCCCCCCCCCCSCC(=O)O,inconclusive: 30.6 µM,

Structure (SMILES),Potency,activation
NCCC(O)(P(=O)(O)O)P(=O)(O)O,inactive,
CCCCOC(=O)CCCCCCCC(=O)OCCCC,inactive,
NC1CCN(c2nc3c(cc2F)c(=O)c(C(=O)O)cn3-c2ccc(F)cc2F)C1 (stereo not given),"inconclusive: 26.6 µM [activator, partial curve]",
CC(=O)OC(C)C,"inconclusive: 27.3 µM [activator, partial curve]",
COc1ccc([C@@H]2Sc3ccccc3N(CCN(C)C)C(=O)[C@@H]2OC(C)=O)cc1,"inconclusive: 29.8 µM [rising, partial curve]",
CCCc1ccccc1O,inactive,
C[C@@H](O)[C@H]1C(=O)N2C(C(=O)O)=C(S[C@@H]3CN[C@H](C(=O)N(C)C)C3)[C@H](C)[C@H]12,inactive,
CC(C)(C)NCC(O)COc1cccc2c1C[C@H](O)[C@H](O)C2 (stereo not given in full),inactive,
C[CH2][Ge]([Cl])([CH2]C)[CH2]C,inactive,
CC(C)(O)CCc1ccccc1,inactive,
COc1ccc(O)cc1,"inconclusive: 13.3 µM [fluorescent, single point]",inconclusive: 2.36%
CCC1CCC(CCC(=O)O)C1 (stereo not given),"inconclusive: 70.1 µM [fluorescent, single point]",
CC1CCCO1 (stereo not given),inactive,
C=CCn1cc[n+](C)c1,,inconclusive: 11%
NC(=O)CCCCC(N)=O,inactive,
CC(CCc1ccc(O)cc1)NCCc1ccc(O)c(O)c1 (stereo not given),inconclusive: 29.8 µM,
OCCN1CCN(CCO)CC1,,inconclusive: 11.2%
CCN(C(=O)c1cc(C)cc(OC[C@H](C)Nc2ccncc2)c1)C(C)C,"inconclusive: 19.1 µM [falling, partial curve]",
CCOC(=O)CCCCCCCCC(=O)OCC,,inconclusive: 10.3%
